Assay results reported in the supplement of paper PMC8728848.
The other results are listed elsewhere or left out.

How the values were obtained:
Experiment in all cases: glycan array binding signal (z-score within array); higher = stronger binding
Details in all cases: glycan notation: IUPAC condensed, linker removed
[1] = target: GalNAc(b1-4)GlcNAc(b1-2)Man
Outline: (§1)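 From the Consortium for Functional Glycomics database, 3228 arrays were curated, keeping only those whose protein sequence was available. Binding is given as a within-array Z-score averaged across arrays sharing a protein sequence and across linkers. Negative Z-scores can be read as non-binding.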

[2] = target: GalNAc(b1-4)GlcNAc(b1-2)Man(a1-3)[GalNAc(b1-4)GlcNAc(b1-2)Man(a1-6)]Man(b1-4)GlcNAc(b1-4)GlcNAc
Outline: as §1

[3] = target: GalNAc(b1-4)GlcNAc(b1-3)GalNAc(b1-4)GlcNAc
Outline: as §1

GalNAc(b1-4)GlcNAc6S = target: GalNAc(b1-4)GlcNAc6S
Outline: as §1

GalNAc(b1-6)GalNAc = target: GalNAc(b1-6)GalNAc
Outline: as §1

GalNAc3S(b1-4)GlcNAc = target: GalNAc3S(b1-4)GlcNAc
Outline: as §1

GalNAc3S(b1-4)GlcNAc3S = target: GalNAc3S(b1-4)GlcNAc3S
Outline: as §1

[4] = target: GalNAc3S(b1-4)[Fuc(a1-3)]GlcNAc
Outline: as §1

GalNAc4S6S(b1-4)GlcNAc = target: GalNAc4S6S(b1-4)GlcNAc
Outline: as §1

GalNAc6S(b1-4)GlcNAc = target: GalNAc6S(b1-4)GlcNAc
Outline: as §1

Glc(a1-4)Glc = target: Glc(a1-4)Glc
Outline: as §1

[5] = target: Glc(a1-4)Glc(a1-4)Glc(a1-4)Glc
Outline: as §1

Glc(a1-6)Glc(a1-6)Glc = target: Glc(a1-6)Glc(a1-6)Glc
Outline: as §1

[6] = target: Glc(a1-6)Glc(a1-6)Glc(a1-6)Glc
Outline: as §1

Glc(b1-4)Glc = target: Glc(b1-4)Glc
Outline: as §1

Glc(b1-6)Glc = target: Glc(b1-6)Glc
Outline: as §1

GlcA(b1-3)Gal = target: GlcA(b1-3)Gal
Outline: as §1

GlcA(b1-3)GlcNAc = target: GlcA(b1-3)GlcNAc
Outline: as §1

GlcA(b1-6)Gal = target: GlcA(b1-6)Gal
Outline: as §1

[7] = target: GlcA3S(b1-3)Gal(b1-4)GlcNAc(b1-2)Man
Outline: as §1

[8] = target: GlcA3S(b1-3)Gal(b1-4)GlcNAc(b1-3)Gal(b1-4)Glc
Outline: as §1

[9] = target: GlcNAc(a1-3)Gal(b1-4)GlcNAc
Outline: as §1

[10] = target: GlcNAc(a1-4)Gal(b1-3)GlcNAc
Outline: as §1

[11] = target: GlcNAc(a1-4)Gal(b1-4)GalNAc
Outline: as §1

[12] = target: GlcNAc(a1-4)Gal(b1-4)GlcNAc
Outline: as §1

[13] = target: GlcNAc(a1-4)Gal(b1-4)GlcNAc(b1-3)Gal(b1-4)Glc
Outline: as §1

[14] = target: GlcNAc(a1-4)Gal(b1-4)GlcNAc(b1-3)Gal(b1-4)GlcNAc
Outline: as §1

[15] = target: GlcNAc(a1-4)Gal(b1-4)GlcNAc(b1-3)Gal(b1-4)GlcNAc(b1-3)Gal(b1-4)GlcNAc
Outline: as §1

[16] = target: GlcNAc(a1-4)Gal(b1-4)GlcNAc(b1-3)Gal(b1-4)[Fuc(a1-3)]GlcNAc(b1-3)Gal(b1-4)[Fuc(a1-3)]GlcNAc
Outline: as §1

[17] = target: GlcNAc(a1-6)Gal(b1-4)GlcNAc
Outline: as §1

[18] = target: GlcNAc(b1-2)Gal(b1-3)GalNAc
Outline: as §1

[19] = target: GlcNAc(b1-2)Man(a1-3)[GlcNAc(b1-2)Man(a1-6)]Man(b1-4)GlcNAc(b1-4)GlcNAc
Outline: as §1

[20] = target: GlcNAc(b1-2)Man(a1-3)[GlcNAc(b1-2)Man(a1-6)]Man(b1-4)GlcNAc(b1-4)[Fuc(a1-6)]GlcNAc
Outline: as §1

[21] = target: GlcNAc(b1-2)Man(a1-3)[GlcNAc(b1-4)][GlcNAc(b1-2)Man(a1-6)]Man(b1-4)GlcNAc(b1-4)GlcNAc
Outline: as §1

[22] = target: GlcNAc(b1-2)Man(a1-3)[GlcNAc(b1-4)][GlcNAc(b1-2)Man(a1-6)]Man(b1-4)GlcNAc(b1-4)[Fuc(a1-6)]GlcNAc
Outline: as §1

[23] = target: GlcNAc(b1-2)[GlcNAc(b1-4)]Man(a1-3)[GlcNAc(b1-2)Man(a1-6)]Man(b1-4)GlcNAc(b1-4)GlcNAc
Outline: as §1

[24] = target: GlcNAc(b1-2)[GlcNAc(b1-4)]Man(a1-3)[GlcNAc(b1-4)][GlcNAc(b1-2)Man(a1-6)]Man(b1-4)GlcNAc(b1-4)GlcNAc
Outline: as §1

[25] = target: GlcNAc(b1-2)[GlcNAc(b1-4)]Man(a1-3)[GlcNAc(b1-4)][GlcNAc(b1-2)[GlcNAc(b1-6)]Man(a1-6)]Man(b1-4)GlcNAc(b1-4)GlcNAc
Outline: as §1

[26] = target: GlcNAc(b1-2)[GlcNAc(b1-4)]Man(a1-3)[GlcNAc(b1-4)][GlcNAc(b1-2)[GlcNAc(b1-6)]Man(a1-6)]Man(b1-4)GlcNAc(b1-4)[Fuc(a1-6)]GlcNAc
Outline: as §1

[27] = target: GlcNAc(b1-2)[GlcNAc(b1-6)]Man(a1-6)[GlcNAc(b1-2)Man(a1-3)]Man(b1-4)GlcNAc(b1-4)GlcNAc
Outline: as §1

[28] = target: GlcNAc(b1-2)[GlcNAc(b1-6)]Man(a1-6)[GlcNAc(b1-2)Man(a1-3)]Man(b1-4)GlcNAc(b1-4)[Fuc(a1-6)]GlcNAc
Outline: as §1

[29] = target: GlcNAc(b1-2)[GlcNAc(b1-6)]Man(a1-6)[GlcNAc(b1-4)][GlcNAc(b1-2)Man(a1-3)]Man(b1-4)GlcNAc(b1-4)GlcNAc
Outline: as §1

GlcNAc(b1-3)Fuc = target: GlcNAc(b1-3)Fuc
Outline: as §1

GlcNAc(b1-3)Gal = target: GlcNAc(b1-3)Gal
Outline: as §1

[30] = target: GlcNAc(b1-3)Gal(b1-3)GalNAc
Outline: as §1

B1: Epa10 (protein)
chain: MNEKIFRYLTLLFLFELARSLPVEDKLNIKKVFEKRAVDFTPFAHYPRPEGCSSPPNSVSVGLHMNLYNYPYLYVKPSTKGMFTNDTNSDADGETDGDSAGGIEGRAGQCWNPEYQDPNFPRFGYKQYGEFGASDNVNGDISWDHNEFTEGCKPVLAALPPGYNYPDEITFSNFTMVLSGYFKPKTSGVYKFELKADDFILFNFGAKNAFECCNREESIDNFGPYVAYAMWPNQADQELEVYLFEDSYYPLRLFYNNRDYHSKFKIGFYPPGQTTITFDFDGYLFMLDDTGNECRDSIRYRTVCDDKVVDDTTYSTRYSTSMVPGGGSDVITIYYIRMKCEEEDCLGQWDPINNVCYSPDDCADDGGYWNGQMCDQSCKLEGGIVNPDTGDCDKSCIESGGFLDENGNCDTTCRDDGGMLVEGQCDYQCKEAGGILVGDHCDTTCVDSGGKLNEDGTCDHSCRDQGGQLDENGECDTSCKDSGGMLIEGECDTSCKDEGGQLDDNNECINHCKDQGGIIDENGNCDTSCKDSGGKLDESGACDTSCRDDGGIIDENGNCNTTCRDDGGIIVGDHCDTSCRDAGGILIEDHCDTTCRDSGGKLNEDGTCDHSCRDQGGQLDENGKCDYSCKNGGGKLDEDGNCDMSCKENGGKLDENGDCDLSCKEDGGKLDGNGDCDYSCKEEGGVIDESGNCNTTCKDSGGQIIDGECNYGCIEVGGVVIDGECDTSCIDSGGILDGDGNCDRSCIESGGVLEDGACNTTCRDSGGQLNVDGTCDTSCRDDGGMLVEGQCDYQCKEAGGILEDGECVFPPTSSSTSETSSTTDQSSLQSDDSSMESSSTPMDSSTIESSSSEIITSESESESVPIASSSSEVMTSESESESIPILTSSSEIPIASSSSEIPVASSSSEIIIPESESESVPVASSSSEIPIASSSSEIPVASSSSEIPVASSSSEIIIPESESESIPIESTSSEAVSSRSESDSSYPTPTPTTTTITTWPNPIQPTTSNSSPIVSSSTETPGIAESSSRISDLESSRRTSILGDDRTRTRTTITSTITEDGQIITITTTVTGFVPEPTGETEGNGSDDENPENPIENNTDENEFLDPEFTDDIPDDPAGPEDNGNGPVNPEQGNDNDPVNLEDSGNNGAVNPEQAPVNDEDNGGNDPVNPEQDNNNGPANPGQDSTNGSGNSDQIDNNPPTPEENAGDGNSNGNDPADPSRRTSILGDERTRASPGGTSQPTGANGNVNGNSPGANVNGGGTGNSNNNNNNNNNNNNGNAPNGGDGSNGDANQGPSRRTSLLGDERTRAGQAAPTGGSSPDNGIAGDTSNNGGAIVSQQVDDGGAGSPRRTSILGDVRSRTTLNGEVLNFEGSGVRRAVAGNLALPLMMVGLVFNL
With B1 the “glycan array binding signal (z-score)” value [1] was -0.312, the “glycan array binding signal (z-score)” value [2] was -0.099 and the “glycan array binding signal (z-score)” value [3] was -0.3. For the same binder, the “glycan array binding signal (z-score)” value (GalNAc(b1-4)GlcNAc6S) was -0.276, the “glycan array binding signal (z-score)” value (GalNAc(b1-6)GalNAc) was -0.325 and the “glycan array binding signal (z-score)” value (GalNAc3S(b1-4)GlcNAc) was -0.253. For the same binder, the “glycan array binding signal (z-score)” value (GalNAc3S(b1-4)GlcNAc3S) was -0.308, the “glycan array binding signal (z-score)” value [4] was -0.263 and the “glycan array binding signal (z-score)” value (GalNAc4S6S(b1-4)GlcNAc) was -0.238. The “glycan array binding signal (z-score)” value (GalNAc6S(b1-4)GlcNAc) was -0.25, the “glycan array binding signal (z-score)” value (Glc(a1-4)Glc) was -0.232 and the “glycan array binding signal (z-score)” value [5] was -0.304. For the same binder, the “glycan array binding signal (z-score)” value (Glc(a1-6)Glc(a1-6)Glc) was -0.246, the “glycan array binding signal (z-score)” value [6] was -0.268 and the “glycan array binding signal (z-score)” value (Glc(b1-4)Glc) was -0.234. The “glycan array binding signal (z-score)” value (Glc(b1-6)Glc) was -0.244, the “glycan array binding signal (z-score)” value (GlcA(b1-3)Gal) was -0.162 and the “glycan array binding signal (z-score)” value (GlcA(b1-3)GlcNAc) was -0.244. The “glycan array binding signal (z-score)” value (GlcA(b1-6)Gal) was -0.122, the “glycan array binding signal (z-score)” value [7] was -0.276 and the “glycan array binding signal (z-score)” value [8] was -0.305. For the same binder, the “glycan array binding signal (z-score)” value [9] was -0.222, the “glycan array binding signal (z-score)” value [10] was -0.238 and the “glycan array binding signal (z-score)” value [11] was -0.249. The “glycan array binding signal (z-score)” value [12] was -0.262, the “glycan array binding signal (z-score)” value [13] was -0.3 and the “glycan array binding signal (z-score)” value [14] was -0.279. The “glycan array binding signal (z-score)” value [15] was -0.217, the “glycan array binding signal (z-score)” value [16] was -0.068 and the “glycan array binding signal (z-score)” value [17] was 0.673. For the same binder, the “glycan array binding signal (z-score)” value [18] was -0.256, the “glycan array binding signal (z-score)” value [19] was -0.259 and the “glycan array binding signal (z-score)” value [20] was -0.266. The “glycan array binding signal (z-score)” value [21] was -0.198, the “glycan array binding signal (z-score)” value [22] was -0.218 and the “glycan array binding signal (z-score)” value [23] was -0.276. For the same binder, the “glycan array binding signal (z-score)” value [24] was -0.188, the “glycan array binding signal (z-score)” value [25] was -0.237 and the “glycan array binding signal (z-score)” value [26] was -0.299. The “glycan array binding signal (z-score)” value [27] was -0.239, the “glycan array binding signal (z-score)” value [28] was -0.215 and the “glycan array binding signal (z-score)” value [29] was -0.259. For the same binder, the “glycan array binding signal (z-score)” value (GlcNAc(b1-3)Fuc) was -0.26, the “glycan array binding signal (z-score)” value (GlcNAc(b1-3)Gal) was -0.237 and the “glycan array binding signal (z-score)” value [30] was -0.197.
